Article PMC6466672
These are yes or no findings as the source states them, for the method shown. For some assays here: Binding seen in cells or lysates may run through a third protein. Some entries that bind do so weakly or less than the wild type. Sequences can lack the tags named with a protein.

Columns and labels:
Vid21-13Myc (S. pombe) = target: T1, Vid21-13Myc (S. pombe) (UniProt O59773); assay: co-IP; S. pombe cell extracts; immunoprecipitation with anti-Myc 9E10 and protein G Sepharose; Western blot with anti-FLAG M2 and anti-Myc 9E10
T1 sequence: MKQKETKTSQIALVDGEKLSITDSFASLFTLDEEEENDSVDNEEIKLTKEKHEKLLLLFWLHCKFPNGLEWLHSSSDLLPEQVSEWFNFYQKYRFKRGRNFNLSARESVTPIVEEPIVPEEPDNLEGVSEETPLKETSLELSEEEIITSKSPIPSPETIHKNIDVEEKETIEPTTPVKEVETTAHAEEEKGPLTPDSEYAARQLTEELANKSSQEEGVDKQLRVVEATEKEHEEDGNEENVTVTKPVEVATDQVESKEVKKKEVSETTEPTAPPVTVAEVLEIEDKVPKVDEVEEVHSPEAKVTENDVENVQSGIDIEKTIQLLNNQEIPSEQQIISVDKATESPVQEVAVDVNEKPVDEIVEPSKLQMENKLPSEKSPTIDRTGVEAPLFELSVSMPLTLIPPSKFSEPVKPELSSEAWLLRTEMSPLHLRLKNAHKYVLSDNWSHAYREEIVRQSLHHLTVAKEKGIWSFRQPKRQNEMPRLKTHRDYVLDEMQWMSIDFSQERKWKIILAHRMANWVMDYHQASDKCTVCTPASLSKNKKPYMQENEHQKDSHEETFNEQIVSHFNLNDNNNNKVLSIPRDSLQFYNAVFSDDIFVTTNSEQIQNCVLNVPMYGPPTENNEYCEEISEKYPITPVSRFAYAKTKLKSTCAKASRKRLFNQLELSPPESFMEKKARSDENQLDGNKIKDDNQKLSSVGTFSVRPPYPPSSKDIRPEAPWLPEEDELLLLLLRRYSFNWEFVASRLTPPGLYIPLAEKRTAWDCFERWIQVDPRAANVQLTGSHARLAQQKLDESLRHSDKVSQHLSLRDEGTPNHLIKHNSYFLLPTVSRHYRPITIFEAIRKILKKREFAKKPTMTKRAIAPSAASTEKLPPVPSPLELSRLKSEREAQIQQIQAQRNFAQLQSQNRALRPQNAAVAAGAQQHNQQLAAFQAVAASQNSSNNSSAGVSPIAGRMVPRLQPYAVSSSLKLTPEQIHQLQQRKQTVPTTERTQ

[1] = target: T2, Swi1 fused to Gal4 DNA-binding domain (S. pombe) (UniProt Q9UUM2); assay: two-hybrid; S. cerevisiae Y190 reporter strain; Gal4-DBD (pAS404) and Gal4-AD (pGAD424) fusions; growth in the presence of 3-aminotriazole (25 mM in the screen)
T2 sequence: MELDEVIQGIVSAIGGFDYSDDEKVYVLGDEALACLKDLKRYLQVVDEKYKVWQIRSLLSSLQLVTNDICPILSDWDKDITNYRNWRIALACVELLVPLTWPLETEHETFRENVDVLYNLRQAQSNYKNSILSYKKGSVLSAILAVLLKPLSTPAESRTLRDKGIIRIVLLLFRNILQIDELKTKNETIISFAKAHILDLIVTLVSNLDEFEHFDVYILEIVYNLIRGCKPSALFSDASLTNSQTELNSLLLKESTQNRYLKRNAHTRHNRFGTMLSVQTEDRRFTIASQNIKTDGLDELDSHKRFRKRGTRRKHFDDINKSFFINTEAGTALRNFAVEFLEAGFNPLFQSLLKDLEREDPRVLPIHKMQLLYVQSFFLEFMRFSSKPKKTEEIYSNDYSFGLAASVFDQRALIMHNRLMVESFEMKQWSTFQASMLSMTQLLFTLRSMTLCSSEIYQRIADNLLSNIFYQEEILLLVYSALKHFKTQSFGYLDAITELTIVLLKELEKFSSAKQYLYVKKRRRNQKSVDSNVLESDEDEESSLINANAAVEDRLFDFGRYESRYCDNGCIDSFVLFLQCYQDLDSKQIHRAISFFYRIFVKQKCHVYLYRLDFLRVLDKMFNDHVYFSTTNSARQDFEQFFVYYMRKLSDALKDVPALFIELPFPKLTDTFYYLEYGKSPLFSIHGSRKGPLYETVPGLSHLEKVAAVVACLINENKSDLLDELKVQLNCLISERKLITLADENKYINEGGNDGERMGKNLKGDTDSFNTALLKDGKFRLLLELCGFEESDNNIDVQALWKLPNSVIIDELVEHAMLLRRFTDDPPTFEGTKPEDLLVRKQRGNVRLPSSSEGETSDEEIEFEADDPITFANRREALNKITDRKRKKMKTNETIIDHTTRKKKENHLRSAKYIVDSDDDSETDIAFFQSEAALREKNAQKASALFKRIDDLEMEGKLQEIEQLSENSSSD

B1: Mst1-5FLAG (protein, UniProt O94446 1-463)
chain: MSNDVDDESKIETKSYEAKDIVYKSKVFAFKDGEYRKAEILMIQKRTRGVVYYVHYNDYNKRLDEWITIDNIDLSKGIEYPPPEKPKKAHGKGKSSKRPKAVDRRRSITAPSKTEPSTPSTEKPEPSTPSGESDHGSNAGNESLPLLEEDHKPESLSKEQEVERLRFSGSMVQNPHEIARIRNINKICIGDHEIEPWYFSPYPKEFSEVDIVYICSFCFCYYGSERQFQRHREKCTLQHPPGNEIYRDDYISFFEIDGRKQRTWCRNICLLSKLFLDHKMLYYDVDPFLFYCMCRRDEYGCHLVGYFSKEKESSENYNLACILTLPQYQRHGYGKLLIQFSYELTKREHKHGSPEKPLSDLGLISYRAYWAEQIINLVLGMRTETTIDELANKTSMTTNDVLHTLQALNMLKYYKGQFIICISDGIEQQYERLKNKKRRRINGDLLADWQPPVFHPSQLRFGW
- binding (Vid21-13Myc (S. pombe)): binds

B2: Vid21_(593-985) fused to Gal4 activation domain (domain or fragment, UniProt O59773 593-985)
chain: FSDDIFVTTNSEQIQNCVLNVPMYGPPTENNEYCEEISEKYPITPVSRFAYAKTKLKSTCAKASRKRLFNQLELSPPESFMEKKARSDENQLDGNKIKDDNQKLSSVGTFSVRPPYPPSSKDIRPEAPWLPEEDELLLLLLRRYSFNWEFVASRLTPPGLYIPLAEKRTAWDCFERWIQVDPRAANVQLTGSHARLAQQKLDESLRHSDKVSQHLSLRDEGTPNHLIKHNSYFLLPTVSRHYRPITIFEAIRKILKKREFAKKPTMTKRAIAPSAASTEKLPPVPSPLELSRLKSEREAQIQQIQAQRNFAQLQSQNRALRPQNAAVAAGAQQHNQQLAAFQAVAASQNSSNNSSAGVSPIAGRMVPRLQPYAVSSSLKLTPEQIHQLQQRKQ
- binding [1]: binds
